Measured values taken from PubChem BioAssay AID2708 (National Center for Advancing Translational Sciences (NCATS), 2010).
Inconclusive results, whose numbers are uncertain, are shown with a selection of clear calls. No potency is given beside an inconclusive call; the fits are too rough. The source made the active and inactive calls. Calls come from the whole dose curve; as a rule, active = well fitted inhibition curve with a large enough effect; inconclusive = small, poorly fitted or top-dose-only effect; inactive = no such curve, though single readings can be large or run the other way.

target: ATP-dependent DNA helicase Q1 (Homo sapiens) (UniProt P46063); experiment: Confirmation qHTS Assay for Inhibitors of RecQ-Like Dna Helicase 1 (RECQ1); conditions: RECQ1 helicase DNA unwinding, fluorescence; series mostly up to 229 µM; note: nearly all actives have a fitted effect of over 45% in size
Method in brief: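 RECQ1T1 50 nM; forked duplex (20 bp + 30-nt ss tails) 200 nM, ATP 2 mM final; pH 8.0, 2 mM MgCl2, 2.5 ug/ml poly(dI-dC); 15 min compound preincubation; discontinuous kinetic read over 2 h at RT.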
Potency is the fitted concentration of half-maximal effect; tags give direction and shape of the fitted curve.

Chain of UniProt P46063 (P46063 whole entry, looked up): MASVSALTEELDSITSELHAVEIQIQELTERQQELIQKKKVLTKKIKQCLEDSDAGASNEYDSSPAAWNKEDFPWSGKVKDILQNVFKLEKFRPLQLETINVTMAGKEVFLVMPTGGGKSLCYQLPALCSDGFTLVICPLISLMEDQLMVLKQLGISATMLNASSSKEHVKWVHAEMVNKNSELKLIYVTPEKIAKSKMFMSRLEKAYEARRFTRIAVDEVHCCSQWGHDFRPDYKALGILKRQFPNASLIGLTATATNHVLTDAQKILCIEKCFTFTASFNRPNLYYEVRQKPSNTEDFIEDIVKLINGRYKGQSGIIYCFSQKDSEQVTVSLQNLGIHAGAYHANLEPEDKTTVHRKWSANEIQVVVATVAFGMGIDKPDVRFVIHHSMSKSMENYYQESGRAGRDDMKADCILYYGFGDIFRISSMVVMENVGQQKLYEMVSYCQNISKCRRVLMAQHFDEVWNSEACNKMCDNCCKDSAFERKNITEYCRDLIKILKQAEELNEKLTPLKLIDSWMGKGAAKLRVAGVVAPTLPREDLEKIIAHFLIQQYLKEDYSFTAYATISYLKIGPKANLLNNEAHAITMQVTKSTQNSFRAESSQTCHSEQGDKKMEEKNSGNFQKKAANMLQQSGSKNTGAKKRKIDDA

| SMILES | Potency |
| --- | --- |
| CC1CCCCC1NC(=O)COC(=O)c1c2c(nc3ccccc13)/C(=C/c1ccco1)CC2 (stereo not drawn) | inactive |
| CCn1c(CSc2nnc(-c3ccncc3)n2CCOC)nc2cc(C(=O)O)ccc21 | active: 56.2 µM |
| O=C(CSc1ncnc2scc(-c3ccccc3)c12)N1CCN(Cc2ccc3c(c2)OCO3)CC1 | inconclusive [inhibitor, partial curve, poor fit] |
